Among the data in paper PMC12136788 are binding signal values, retold here.

Positions count from the first letter of the chain named. Some of the results follow.

T1: UNK ZnF1-3 (human, UniProt Q9C0B0 31-174)
T1 sequence: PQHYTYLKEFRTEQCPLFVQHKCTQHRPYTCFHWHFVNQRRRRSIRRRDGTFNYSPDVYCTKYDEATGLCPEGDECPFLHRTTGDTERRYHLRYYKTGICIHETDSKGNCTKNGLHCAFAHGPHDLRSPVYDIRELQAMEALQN

B1: chrX:20248820:20248821:+_ENSMUSG00000001924_ENSMUST00000001989|mus_mus|mus_mus_mus_hu_True|8_48 (ssRNA)
RNA: GGGAGUUCUACAGUCCGACGAUCGGCGAAGUCCGUCACCACAAAGUCAGGUUCUGCCAGUGAGGCCACCAAGGAUUUAAAGCUAAUCUUUUUCGGUACUUUGACCUGACUGACGAUGCCUCCACGGAUGUAGUCAGAGAAGUUCAACAGAGGAUUGAGCAUCA
B2: 147796766_147803679_1845_CDS_ENSG00000145868_ENST00000340253|human|control|control (ssRNA)
RNA: GGGAGUUCUACAGUCCGACGAUCUGCUUGUUCCUCAUCAACAUCCACAGGAAUAAUUGCCUGGCUGUGAGCUGGAGUAUUAUUUCCACUCUCGGCCACCACCUCUCCAUCUUCUUGGACGAUGUCUUCCAUCUCAUUUAAUGCCAACAGAGGAUUGAGCAUCA
B3: chr3:108394432:108394433:+_ENSMUSG00000040389_ENSMUST00000051145|mus_mus|FALSE|FALSE (ssRNA)
RNA: GGGAGUUCUACAGUCCGACGAUCAGGAAAACGCGGAGGAGAGGCCGGCGGCCAGAGCCCCGAGACAGCCAAUUCCAGUCUAAGGCGCGAGCGCGAGGGCGGCGGUCUGGGCUAAGCAGCCCGCACGUCAAUCCAUCAGCUCGUCAACAGAGGAUUGAGCAUCA
B4: chr1:135503150:135503151:-_ENSMUSG00000090553_ENSMUST00000166915|mus_hu|FALSE|FALSE (ssRNA)
RNA: GGGAGUUCUACAGUCCGACGAUCUUCUGCAUCAUCUAAUACAAGGUUCAUAUACUCAUCAAAACCAAUGAUACAGCCUUCUAUCCGCAUAUUCACUUGCUCAUAGAGCCACACCUGAAUCCGCGAUCUCUGAAAUAAUCAUAACAACAGAGGAUUGAGCAUCA
B5: chr12:39763582:39763583:-_ENSG00000139116_ENST00000544797|hu_mus|hu_hu_hu_mus_False|48_88 (ssRNA)
RNA: GGGAGUUCUACAGUCCGACGAUCCUCUAGGAACUGGGCAUUCACUUUAAAAUCUGGAGGGGGCAGCCCGUUUUUAAUCGCUGAGGUUUUUUUUUCUUCAAUACUCUUGAACAGGUGUCUAACAGCACGAGAGAUGAUGCCCUGCAACAGAGGAUUGAGCAUCA
B6: chr18:35748043:35748044:+_ENSMUSG00000037236_ENSMUST00000166793|perfect_dup|FALSE|FALSE (ssRNA)
RNA: GGGAGUUCUACAGUCCGACGAUCUGUAUAAAAGAGUGAACACAGCUUACAGUAAAACCCUGUUUUAGGUAUCACAUAGUCUAUACCAACAGGAACAUUGGGCUGAUAUGGUCCAAUUCUAUACUCAUCUGGGAUUGUAUAGUCCAACAGAGGAUUGAGCAUCA
B7: 67934596_67934716_127_5pUTR_ENSMUSG00000079614_ENSMUST00000025421|mouse|control|control (ssRNA)
RNA: GGGAGUUCUACAGUCCGACGAUCACAUCGUGGAUGAGGUCCUUGUGGUCCGCCGCGAUGCUGCGCGCCACAAACAUGGCCGCCGCCGUCUGCCGGGCCCGCCUCCGAGAGGGCGGCGGUGCGGCCCGCAGCCCCCGGACCACCCAACAGAGGAUUGAGCAUCA
B8: chr4:98674826:98674827:-_ENSMUSG00000028556_ENSMUST00000030286|mus_mus|FALSE|FALSE (ssRNA)
RNA: GGGAGUUCUACAGUCCGACGAUCGAUCCGCAUGUCCCCAAUUCGGACCGGGAACAUGUGUUCAUCCAGAGCAUUGACAAGAGCAAAGAAUUUGUCUAGAUAAGGGUCUUGUGUAUGAAUGGAUGAAACAGCAACAACUUCAACCAACAGAGGAUUGAGCAUCA
B9: chr20:5919097:5919098:-_ENSG00000089195_ENST00000203001|hu_hu|motif|central (ssRNA)
RNA: GGGAGUUCUACAGUCCGACGAUCGUUCUUAUUCUUGGGAUAUGAAAAAACAAGUAGUAAUGGCAUUUAAAGUUUAAUUACGGACUGUAUAAUGCCUGAGAACAAAAUUCAGAGCAAUUCUCAAAAGGGUUAAGAGUCAGACUCCAACAGAGGAUUGAGCAUCA
B10: chr1:220276048:220276049:+_ENSG00000067704_ENST00000302637|hu_hu|hu_hu_hu_mus_True|78_98 (ssRNA)
RNA: GGGAGUUCUACAGUCCGACGAUCGCAAAUUGCCUGGUUGGCUGGAAUUGUCCAAGGUUGUGUGGUCCAAACUAAAACGCUAACAGGGGAUGAGGCAUCUGUAAGAGACUCCAACUUCGGAGGAGGUCUCAGGAGGGGGAAUCUCAACAGAGGAUUGAGCAUCA
B11: chr1:220276048:220276049:+_ENSG00000067704_ENST00000302637|hu_hu|hu_hu_hu_mus_True|38_108 (ssRNA)
RNA: B10 RNA with U29C, U30A, C33U, G35C, G36A, U42G, U57C, U60G, G100A
B12: chr6:108246082:108246083:-_ENSG00000025796_ENST00000369002|hu_hu|FALSE|FALSE (ssRNA)
RNA: GGGAGUUCUACAGUCCGACGAUCUGUUUUGGAAACUUUAUAUGCAAGGAAUAAGAACAAUGCCCAUCCUGCAAGCAGAACUAUUUUCUUUACUGUAGGAAUAAUAUUUGGCUGGGGUUUUAAUAACCGUAAACGAUACCACAUCAACAGAGGAUUGAGCAUCA
B13: chr3:128198961:128198962:-_ENSG00000179348_ENST00000341105|hu_hu|FALSE|FALSE (ssRNA)
RNA: GGGAGUUCUACAGUCCGACGAUCACUGGACCCAAAAAGAGUUUAAAAAUAAAACAAUUAACUCAUCAGCGAGUUAAGCCUAUGCAUUUUUUUAAUAUUUUUUCUUUUGUCUCAGAGUAGGAGGCGAGGGGGUUGAAGGGUUAGCAACAGAGGAUUGAGCAUCA
B14: chr6:41757443:41757444:+_ENSG00000214736_ENST00000398881|hu_mus|hu_hu_hu_mus_False|28_58 (ssRNA)
RNA: GGGAGUUCUACAGUCCGACGAUCGAACCGUGCAGAGGCAACAUCUCAGCCGACACUGGGGGAUGGGGGGGCAGUGGGAAACUAGGCAGGCAAGGAGAGGGAGUCAACCCAUCUGAACACUCAGGUAGGAUCUUGUGGUCACAGCAACAGAGGAUUGAGCAUCA
B15: chr18:56819859:56819860:+_ENSG00000166562_ENST00000588875|hu_mus|hu_hu_hu_mus_True|68_108 (ssRNA)
RNA: GGGAGUUCUACAGUCCGACGAUCAACUUUGAUUACUCUGUGAACUAUCGGAAUGUCUCUUCCUUCAACUUUAAAAACAACUAUUUCACCAGCUCUGAUGGGGUCCUCCCGGAAAUUCGUGAGGAACAGCAGAUCUCCUCUGUGCAACAGAGGAUUGAGCAUCA
B16: 100370835_100370955_3204_3pUTR_ENSMUSG00000008763_ENSMUST00000008907|mouse|control|control (ssRNA)
RNA: GGGAGUUCUACAGUCCGACGAUCCAGCAGUUAUGAUAAAUACCAGGUUCAGCAUAUUAUAUGGAGACAACGACUUGAAAAAUAUUCUUCAUGAGAUCAUGCCCCUCAGAGAAAAACUCAAUCUAAACAGAUUUCAAUGCCUAGCAACAGAGGAUUGAGCAUCA
B17: chrX:71549400:71549401:+_ENSMUSG00000019087_ENSMUST00000019231|mus_hu|mus_mus_mus_hu_False|8_68 (ssRNA)
RNA: GGGAGUUCUACAGUCCGACGAUCGCAGUAGGAAGAGGGAAGCUCUUCAGUCCAGUGCGCUGCAGGGAGAAACAUGAACAACACGGACACCGUCCCACCCUCAACCCCCCCACUGGCACAGGGUCACAUCUGGGUCAUCAAAGACAACAGAGGAUUGAGCAUCA
B18: chr4:147104108:147104109:+_ENSG00000164167_ENST00000515311|hu_mus|FALSE|FALSE (ssRNA)
RNA: GGGAGUUCUACAGUCCGACGAUCCGAUAAUCCACGCCAGAAUUUAAUUUCACCACAACUGGCCGUCCGAUGAUCUGCUUUAAGAAGUCGCUAGGGGUUUGCUUCCGCAGGCUCAUGUUUAACAACCCUGAUUAGAAACGGGAACAACAGAGGAUUGAGCAUCA
B19: chr19:16212804:16212805:+_ENSG00000167460_ENST00000300933|hu_mus|hu_hu_hu_mus_False|58_98 (ssRNA)
RNA: GGGAGUUCUACAGUCCGACGAUCAACAAUUCUGGAGAAGAACAUCAAUGUAACAUGGAACAGCAUUAAAGCUCAGUAUUACUAUAUAUGGGCAACAAUGAUCACCCCAGCAUUCUCGCUUGGAAUGCUUAAAGACAAUCUGUUCAACAGAGGAUUGAGCAUCA
B20: chr10:61005148:61005149:+_ENSG00000165443_ENST00000486074|hu_hu|FALSE|FALSE (ssRNA)
RNA: GGGAGUUCUACAGUCCGACGAUCUGACAUCCUGGGCAUGGUGGUAAACCAGCACCCCAUCUUCUUCUGUACAGGUCAAAAAUUUAUUAUCCUUAGAAUUUAGUUGAGGAAGGCGCUGCUUACAAAAUUCAUCUCCUGGUGAUCCAACAGAGGAUUGAGCAUCA
B21: chr6:36694466:36694467:-_ENSMUSG00000029838_ENSMUST00000101534|mus_mus|FALSE|FALSE (ssRNA)
RNA: GGGAGUUCUACAGUCCGACGAUCCUCAGCAGUGUCCACAGCUGCCAAGAUGAAAAUCAAUGCCAGGAAGGCAGCUGCAAAUUUUCUACGUUGCUGCUGAUAUUGCUGGGACGACAUUUUUUGGCUUGCAGAGGUCCUCGCUGACAACAGAGGAUUGAGCAUCA
B22: chr17:13112271:13112272:+_ENSMUSG00000068039_ENSMUST00000151287|mus_hu|FALSE|FALSE (ssRNA)
RNA: GGGAGUUCUACAGUCCGACGAUCAAUUAGGUUUUCAUUGAUAUAACGCACUGCUUCCUUGCAAGCAAGUCGAUAGCCACUAAUAACUGAUGUGGGAUGAAUUUUCUGUUUGACUAAUUCAUCUGCAUUUUUUAGGAGUUCUGCCAACAGAGGAUUGAGCAUCA

The target of the assay is T1, UNK ZnF1-3. Put plainly: nsRBNS (natural sequence RNA bind-n-seq); RBNS binding buffer (assumed for nsRBNS): 25 mM Tris pH 7.5, 150 mM KCl, 3 mM MgCl2, 0.01% Triton X-100, 500 ug/ml BSA, 20 U/ml SUPERase-In, 4 C; UNK is unkempt and MSI1 is Musashi-1; names of the RNAs are library labels; protein concentration not given here; high values mean tight binding.
As for B1, the binding signal is 1.04 enrichment R.

Molecule B2 displayed a binding signal of 0.517 enrichment R.

B3 came in with a binding signal of 0.897 enrichment R.

B4 gave a binding signal of 0.957 enrichment R.

B5 gave a binding signal of 1.91 enrichment R.

In turn, B6 registered a binding signal of 0.418 enrichment R.

With B7, the binding signal was determined as 0.545 enrichment R.

Molecule B8 yielded a binding signal of 1.39 enrichment R.

Consider B9, for which the binding signal was determined as 0.758 enrichment R.

Turning to B10, the binding signal was determined as 1.45 enrichment R.

Consider B11, for which the binding signal is 2.31 enrichment R.

Molecule B12 gave a binding signal of 0.69 enrichment R.

Take B13: the binding signal was 1.61 enrichment R.

In the case of B14, the binding signal was 2.22 enrichment R.

Take B15: the binding signal was 0.655 enrichment R.

B16 gave a binding signal of 1.35 enrichment R.

B17 displayed a binding signal of 1.66 enrichment R.

B18: the binding signal was 1.12 enrichment R.

B19 showed a binding signal of 1.02 enrichment R.

As to B20, the binding signal was 1.36 enrichment R.

As for B21, the binding signal amounted to 0.8 enrichment R.

Turning to B22, the binding signal was found to be 0.502 enrichment R.
